{
  "source": "PubChem BioAssay AID2100",
  "about": "(National Center for Advancing Translational Sciences (NCATS), 2009)",
  "note": "The whole screen tested about 300,000 compounds, of which about 1,200 (0.4%) were called active. Inconclusive means that the source gave no clear call. Such entries were picked first, then a sample of the others. Calls come from the whole dose curve; as a rule, active = well fitted inhibition curve with a large enough effect; inconclusive = small, poorly fitted or top-dose-only effect, or another doubt; inactive = no such curve, though single readings can be large or run the other way. A potency beside an inconclusive call is a rough fit, not a confirmed value. Potency is the fitted concentration of half-maximal effect.",
  "data": [
    {"target": "Lysosomal alpha-glucosidase (Homo sapiens) (UniProt P10253)", "assay": "qHTS Assay for Inhibitors and Activators of Human alpha-Glucosidase Cleavage of Glycogen", "conditions": "recombinant GAA, glycogen substrate, Amplex Red glucose oxidase fluorescence; series mostly up to 76.4 µM", "summary_of_the_method": "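Natural-substrate format: glycogen cleavage by 4 nM human enzyme, glucose read by Amplex Red coupling (Ex 573, Em 610 nm). Normalized to enzyme and no-enzyme controls.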", "values": [
      {"smiles": "COc1ccc(-c2nc(CCNC(=O)c3ccc(Br)o3)cs2)cc1", "Potency": "inconclusive: 39.8 µM [inhibitor, single point]"},
      {"smiles": "O=[N+]([O-])c1cc(-c2nc(-c3ccccc3)no2)ccc1N1CCOCC1", "Potency": "inactive"},
      {"smiles": "COc1ccc(-c2nc(CNS(=O)(=O)c3cccc(F)c3)cs2)cc1", "Potency": "inactive"},
      {"smiles": "CCOC(=O)c1ccc(N2C(=O)c3n[nH]c(-c4ccco4)c3C2c2cccc(O)c2)cc1", "note": "(centres undefined)", "Potency": "inactive"},
      {"smiles": "O=C1Nc2ccccc2N=C(c2ccccc2)c2ccccc21", "Potency": "inconclusive: 7.94 µM [inhibitor, full curve]"},
      {"smiles": "Nc1sc(-c2ccccc2)cc1C(=O)N/N=C/c1ccc(Cl)cc1", "Potency": "inconclusive: 31.6 µM [inhibitor, partial curve]"},
      {"smiles": "c1ccc(-c2nn3c(Cn4nnc5ccccc54)nnc3s2)cc1", "Potency": "inactive"},
      {"smiles": "CNc1nc(NN)nc(Nc2ccccc2)n1", "Potency": "inconclusive: 28.2 µM [inhibitor, partial curve]"},
      {"smiles": "Cc1cc(=O)[nH]c(SCC(=O)c2ccc(O)c(O)c2)n1", "Potency": "inconclusive: 50.1 µM [inhibitor, single point]"},
      {"smiles": "O=C1CC(Nc2ccc(N3CCOCC3)cc2)C(=O)N1c1ccccc1F", "note": "(centres undefined)", "Potency": "active: 25.1 µM"},
      {"smiles": "CCc1ccc(C(=O)NNc2ccccc2F)cc1", "Potency": "inconclusive: 50.1 µM [inhibitor, single point]"},
      {"smiles": "CC(C)Cc1ccc(C(C)C(=O)Nc2ccc(O)cc2)cc1", "note": "(centres undefined)", "Potency": "inconclusive: 39.5 µM [inhibitor, single point]"},
      {"smiles": "CC(=O)Nc1ccc(-c2csc(N/N=C(/C)c3ccccc3)n2)cc1", "Potency": "inconclusive: 39.8 µM [inhibitor, single point]"},
      {"smiles": "CCOC(=O)c1c(N/N=C/c2cccnc2)n[nH]c1C", "Potency": "inconclusive: 50.1 µM [inhibitor, single point]"},
      {"smiles": "CCc1cccc(C)c1Nc1c(-c2ccsc2)nc2ncccn12", "Potency": "inconclusive: 28.2 µM [inhibitor, single point]"},
      {"smiles": "Cc1[nH][nH]c(=O)c1C(c1ccc(-c2cccc(Cl)c2)o1)c1c(C)[nH][nH]c1=O", "Potency": "inconclusive: 31.6 µM [inhibitor, single point]"},
      {"smiles": "Cc1ccc(Nc2ccc(C(=O)O)cc2N)cc1", "Potency": "active: 28 µM"},
      {"smiles": "Cc1nnc(N/N=C/c2cc(C)n(-c3ccc(F)cc3)c2C)n1N", "Potency": "inconclusive: 10 µM [inhibitor, single point]"},
      {"smiles": "O=C(CCN1CCC(c2ccccc2)C1)c1ccccc1", "note": "(centres undefined)", "Potency": "inconclusive: 63.1 µM [inhibitor, partial curve, poor fit]"},
      {"smiles": "C(=N\\Nc1nc2ccccc2[nH]1)/c1ccc2ncccc2c1", "Potency": "inconclusive: 22.4 µM [inhibitor, partial curve]"},
      {"smiles": "CCOc1cc(/C=N/Nc2cccc(C(=O)O)c2)ccc1OCC(=O)N1CCCCC1", "Potency": "inconclusive: 31.6 µM [inhibitor, partial curve]"},
      {"smiles": "Oc1cccc(/C=N\\Nc2nncc(-c3ccccc3)n2)c1", "Potency": "inconclusive: 17.6 µM [inhibitor, partial curve]"},
      {"smiles": "Oc1ccc(N2CCN(c3nc(-c4cccs4)nc4ccccc34)CC2)cc1", "Potency": "active: 25.1 µM"},
      {"smiles": "Cc1ccc(-c2nc3ncccn3c2Nc2ccc3c(c2)OCO3)o1", "Potency": "active: 10 µM"},
      {"smiles": "Cc1ccc(O)c(NC(=S)NC(=O)c2ccccc2Cl)c1", "Potency": "inconclusive: 39.8 µM [inhibitor, partial curve]"},
      {"smiles": "COc1ccccc1NC(=O)C1=C(C)Nc2nc(-c3ccco3)nn2C1c1ccccc1F", "note": "(centres undefined)", "Potency": "inconclusive: 20 µM [inhibitor, partial curve]"},
      {"smiles": "COc1cccc(N(C(=O)CNC(=O)c2ccco2)C(C(=O)NC2CCCC2)c2ccco2)c1", "note": "(centres undefined)", "Potency": "inactive"},
      {"smiles": "CC(=O)Nc1ccc(-c2csc(NNC(=O)c3ccc(C)cc3)n2)cc1", "Potency": "inconclusive: 15.8 µM [inhibitor, partial curve]"},
      {"smiles": "COc1ccccc1/C=C/c1nc(C#N)c(NC(C)c2ccccc2)o1", "note": "(centres undefined)", "Potency": "inconclusive: 25.1 µM [inhibitor, partial curve]"},
      {"smiles": "Nc1c(Cl)cc(NC(=O)c2ccccc2C(=O)O)cc1Br", "Potency": "inconclusive: 28.2 µM [inhibitor, partial curve]"},
      {"smiles": "Cc1cc(Nc2nc3c(c(=O)n(C)c(=O)n3C)n2C)n(-c2ccc(Cl)cc2)n1", "Potency": "active: 24.9 µM"},
      {"smiles": "Cc1ccc2nc(C)c(C(=O)NN=C3CCCCCC3)n2c1", "Potency": "inconclusive: 15.8 µM [inhibitor, partial curve]"},
      {"smiles": "NC(N)=N/N=C/c1ccc(OCc2ccccc2Cl)cc1", "Potency": "inactive"},
      {"smiles": "COc1cc(CNc2ccc(N3CCOCC3)cc2)cc(Br)c1OC", "Potency": "active: 44.7 µM"},
      {"smiles": "CN(C1CCS(=O)(=O)C1)S(=O)(=O)c1ccccc1", "note": "(centres undefined)", "Potency": "inconclusive: 3.55 µM [inhibitor, full curve]"},
      {"smiles": "COc1ccc(N/N=C2/CCCCC2=O)cc1", "Potency": "inconclusive: 19.8 µM [inhibitor, partial curve]"},
      {"smiles": "COc1ccccc1NC(=S)NNC(=O)c1ccccc1Br", "Potency": "inconclusive: 39.8 µM [inhibitor, single point]"},
      {"smiles": "CN1/C(=C/C2CC(=O)NC2=O)C(C)(C)c2ccccc21", "note": "(centres undefined)", "Potency": "inconclusive: 28.2 µM [inhibitor, single point]"},
      {"smiles": "Oc1c(Cl)cc(Cl)cc1C1Nc2ccccc2-n2cccc21", "note": "(centres undefined)", "Potency": "inconclusive: 39.5 µM [activator, single point]"},
      {"smiles": "Cc1[nH][nH]c(=O)c1C(c1c(C)[nH][nH]c1=O)c1cn(Cc2ccccc2Cl)c2ccccc12", "Potency": "inconclusive: 11.2 µM [inhibitor, partial curve]"},
      {"smiles": "COc1ccc(/C=C2\\SC(=S)N(C(C)C(=O)NC3C=CS(=O)(=O)C3)C2=O)cc1", "note": "(centres undefined)", "Potency": "inactive"},
      {"smiles": "Cc1nc2ccc(NC(=S)N3CCN(c4ccccn4)CC3)cc2nc1C", "Potency": "inconclusive: 17.8 µM [inhibitor, partial curve]"},
      {"smiles": "COc1ccc(/C=C2\\CCCc3c2nc2ccccc2c3C(=O)O)cc1OC", "Potency": "inconclusive: 35.5 µM [activator, single point]"},
      {"smiles": "O=C(O)c1cccc(NC(=S)N/N=C/c2c[nH]c3ccccc23)c1", "Potency": "inconclusive: 14.1 µM [inhibitor, partial curve]"},
      {"smiles": "COc1ccc(C2=Nc3cc(C)ccc3OC2)cc1", "Potency": "inconclusive: 35.5 µM [inhibitor, single point]"},
      {"smiles": "Cc1ccc(CSCC(=O)N/N=C/c2ccc(OCC(=O)Nc3ccc(C)cc3)cc2)cc1", "Potency": "inactive"},
      {"smiles": "CCOC(=O)CCCCC(=O)c1[nH]c(=O)[nH]c1CSc1nc(C)cc(=O)[nH]1", "Potency": "inconclusive: 39.8 µM [inhibitor, single point]"},
      {"smiles": "Cc1occc1C(=O)NNC(=S)Nc1ccccc1", "Potency": "inconclusive: 20 µM [inhibitor, partial curve]"},
      {"smiles": "Cc1ccc(S(=O)(=O)N2CCN(CC(=O)N/N=C/c3ccc(C)o3)CC2)cc1", "Potency": "inactive"},
      {"smiles": "COc1ccc(C(=O)NCc2ccc3c(c2)cc(C)n3C)cc1OC", "Potency": "inconclusive: 39.5 µM [activator, single point]"},
      {"smiles": "C=C(C)CNC(=S)Nc1sc2c(c1C(=O)OCC)CC(C)(C)OC2", "Potency": "inconclusive: 35.5 µM [inhibitor, partial curve]"},
      {"smiles": "COC(=O)Cc1c(C)[nH]n(-c2cc(Cl)cc(Cl)c2)c1=O", "Potency": "inconclusive: 28.2 µM [inhibitor, single point]"},
      {"smiles": "Cc1cc2nc(CCl)cc(=O)n2[nH]1", "Potency": "inactive"},
      {"smiles": "CN1CCc2c(sc3ncn4nc(-c5ccccc5O)nc4c23)C1", "Potency": "inconclusive: 35.2 µM [activator, single point]"},
      {"smiles": "O=C1NC(c2cc(Cl)cc([N+](=O)[O-])c2O)Nc2ccccc21", "note": "(centres undefined)", "Potency": "inconclusive: 25.1 µM [activator, partial curve]"},
      {"smiles": "COc1cc(CN2CCN(S(=O)(=O)c3ccc(NC(C)=O)cc3)CC2)cc(OC)c1O", "Potency": "inconclusive: 28 µM [inhibitor, single point]"},
      {"smiles": "CC(C)C[C@H](NC(=O)c1nc[nH]c1C(=O)NCC(=O)OCc1ccccc1)C(=O)OC(C)(C)C", "Potency": "inconclusive: 12.6 µM [inhibitor, partial curve, poor fit]"},
      {"smiles": "CN(C)C(=O)CNc1n[nH]c(=S)[nH]c1=O", "Potency": "inconclusive: 15.8 µM [inhibitor, partial curve]"},
      {"smiles": "CCN1CCc2c(sc3c2c(NCc2ccco2)nc2nnnn23)C1", "Potency": "inconclusive: 35.5 µM [activator, partial curve]"},
      {"smiles": "O=C(COc1ccccc1)NNc1c2ccccc2nc2ccccc12", "Potency": "inconclusive: 7.94 µM [inhibitor, partial curve]"},
      {"smiles": "CCOC(=O)N1CCc2c(sc3c2C(=O)NC(c2ccccc2)N3)C1", "note": "(centres undefined)", "Potency": "inconclusive: 24.9 µM [inhibitor, partial curve]"},
      {"smiles": "Cc1ccc(S(=O)(=O)NNC(=S)Nc2cccc(C)c2C)cc1", "Potency": "inconclusive: 3.55 µM [inhibitor, full curve]"},
      {"smiles": "N#Cc1nc(-c2cccs2)oc1NCc1ccccc1Cl", "Potency": "inconclusive: 12.6 µM [inhibitor, partial curve]"},
      {"smiles": "CN(C)c1cccc(C(=O)n2cc(C(=O)c3cc(F)ccc3O)cn2)c1", "Potency": "inconclusive: 8.91 µM [inhibitor, partial curve]"},
      {"smiles": "Cc1cc([N+](=O)[O-])nn1CC(=O)NNC(=S)Nc1ccc(F)cc1", "Potency": "inconclusive: 31.6 µM [inhibitor, partial curve]"},
      {"smiles": "COc1ccc(S(=O)(=O)N2CCN(C(=O)COc3ccc4c(C)cc(=O)oc4c3)CC2)cc1", "Potency": "inactive"},
      {"smiles": "Cc1cc(C(=O)N/N=C/c2ccc(-c3ccc([N+](=O)[O-])cc3C)o2)n[nH]1", "Potency": "inactive"},
      {"smiles": "CC(C)(C)c1cc[n+](C2=C([O-])c3ccccc3C(=O)/C2=N\\S(=O)(=O)c2ccccc2)cc1", "Potency": "inactive"},
      {"smiles": "COc1ccc(CNc2oc(COc3cccc(C)c3)nc2C#N)cc1", "Potency": "inconclusive: 12.6 µM [inhibitor, partial curve]"}
    ]}
  ]
}
